Source: PubChem BioAssay AID1671194 (National Center for Advancing Translational Sciences (NCATS), 2021)
Screen size: about 140,000 compounds; about 240 (0.17%) were called active. Inconclusive means that the source gave no clear call. Such entries were picked first, then a sample of the others. Calls follow the shape of the dose curve; as a rule, active = well fitted inhibition curve with a large enough effect; inconclusive = small, poorly fitted or top-dose-only effect; inactive = no such curve, though single readings can be large or run the other way. Where the call is inconclusive, the potency comes from a doubtful curve fit.

Assay: Primary qHTS assay for inhibitors of alpha-synuclein gene (SNCA) expression; also: nearly all actives have a fitted effect of over 45% in size;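 as to activity change, negative = inhibition: plate controls were DMSO cells for no effect and cell-free wells for full effect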
Settings: HEK-293 SNCA-luciferase knock-in, luminescence, 24 h; activity change, negative = inhibition: at 57.2 µM (top of the series) unless noted
Potency is read from the fitted curve at half-maximal effect; tags tell the direction and shape of the fitted curve.

Activity change, negative = inhibition, inactive:
COc1cccc(CNC(=O)[C@@H]2CCCN2C(=O)c2cccc(-c3ccccc3OC)c2)c1 -7.4%, CC(C)NC[C@H]1O[C@@H](CO)[C@@H](O)[C@H]1N1CCN(c2ccccn2)CC1 -4.83%, Cc1cccc(-c2ccc3c(c2)C(=O)N2CC[C@H](NC(=O)c4cccs4)C[C@H]2C(=O)N3)c1C -24.5%, CC(C)C[C@@H]1N[C@H](C(=O)N2CCN(C)CC2)Cc2c[nH]c3cccc1c23 6% [at 87.6 µM], Cn1nc(C2CCNC2)c2c(C(=O)NCC(F)(F)F)cc(C3CC3)nc21 (centres undefined) 3.49%, COc1ccc(-c2cc(N3CCCC(NC(=O)c4ccccc4Cl)C3)n[nH]2)cc1 (centres undefined) 33.4%, Cc1ccc(CS(=O)(=O)c2ncc(Cl)c(C(=O)Nc3nc4ccc(C)cc4s3)n2)cc1 -12.3%, Cc1ccc(-c2noc(-c3ccccc3NC(=O)c3ccccc3)n2)cc1 116%, Cc1ccc(S(=O)(=O)N2CCc3c(C(=O)NCc4ccccn4)cccc32)cc1 9.02%, CCOc1ccc(CCNC(=O)c2cn(C)c3ccc(S(=O)(=O)N4CCCCC4)cc3c2=O)cc1OCC 23.4%

Potency, inconclusive:
COc1cc(C(=O)NS(=O)(=O)c2ccccc2C)ccc1Cc1cn(C)c2ccc(NC(=O)OC3CCCC3)cc12 42.9 µM [inhibitor, single point], CCOC(=O)C1(Cc2ccccc2)CCNCC1 39.8 µM [inhibitor, single point], CC1(COc2cccnc2)COc2ccc(C(=O)NCCOc3ccccc3)cc2N1 (centres undefined) 7.08 µM [inhibitor, full curve, poor fit], O=C(c1ccc(C(F)(F)F)cc1)N1CCC(c2nn(-c3ccccn3)c(=O)[nH]2)CC1 3.16 µM [inhibitor, full curve], OCc1cccc(-c2ccc3ncc(Nc4cccc(C(F)(F)F)c4)n3n2)c1 56.2 µM [inhibitor, single point], O=C(C1CCCC1)N1Cc2ccccc2CC2(CCCN(Cc3ccccc3)C2)C1 (centres undefined) 3.16 µM [inhibitor, full curve], CCCCN1C(=O)C(O)(c2c[nH]c3ccccc23)c2cc(Br)ccc21 (centres undefined) 35.5 µM [inhibitor, single point], CCc1ccc(C(=O)NC2CCN(c3cc(-c4ccc(F)cc4)[nH]n3)C2)cc1 (centres undefined) 20 µM [inhibitor, partial curve, poor fit], CC(=O)N1C[C@@H]2CCCN3CCC[C@@H]([C@H]23)[C@H]1CCCC(=O)NCCc1nc2ccccc2n1C 39.8 µM [inhibitor, single point], CCN1CCC2(CCC1=O)CN(Cc1ccc(C)c3ccccc13)CCN2C (centres undefined) 3.55 µM [inhibitor, full curve, poor fit], CCn1c(=O)c(C(=O)Nc2ccc(C(C)=O)cc2)nc2ccccc21 39.8 µM [inhibitor, single point], COc1cc(NC(=O)c2cccc3c2C(=O)N(C2CCCCC2)C3)cc(OC)c1 25.1 µM [inhibitor, single point], CCc1nc2c(c(-c3ccc(OC)cc3)n1)CN(C(=O)c1ccc3c(c1)OCO3)CC2 10 µM [inhibitor, partial curve, poor fit], Cc1ccc(C(=O)NC(C(=O)N2CCCCC2)C2CCN(C(=O)c3ccc(C)cc3)CC2)cc1 (centres undefined) 8.91 µM [inhibitor, single point], COCCCNC(=O)N1CCCOCCNC(=O)[C@@H]2CCC[C@@H]21 8.91 µM [inhibitor, single point], Cc1n[nH]c(C)c1S(=O)(=O)N(CC(=O)Nc1ccc(C(F)(F)F)cc1)c1ccc(C(C)C)cc1 25.1 µM [inhibitor, partial curve, poor fit], Cc1ccc(OC(=O)N2CCC(COc3ccc4c(cnn4CCC(=O)O)c3)CC2)cc1 12.6 µM [inhibitor, single point], N#Cc1cccc(-c2cncnc2NCCc2cnc[nH]2)c1 10 µM [inhibitor, partial curve, poor fit], O=C(Cc1cccs1)N1CCc2nn(CC3CC3)c(=O)n2CC1 39.8 µM [inhibitor, single point], CCCCN(CCCC)CCNC(=O)Cn1nc(CC)n2c(cc3sc(C)cc32)c1=O 0.158 µM [inhibitor, partial curve, poor fit], CC(=O)N1Cc2ccccc2OC2(CCN(C(=O)c3cccc4[nH]ccc34)CC2)C1 35.5 µM [inhibitor, single point], CCC(=O)N1CCc2c(sc3ncnc(N(C)Cc4ccccc4)c23)C1 1.12 µM [inhibitor, partial curve, poor fit], COc1ccccc1C(=O)N1[C@@H]2CC[C@H]1CC(NC(=O)c1ccncc1)C2 (some centres undefined) 39.8 µM [inhibitor, single point], COc1ccc(Cc2ncc3c(n2)CN(C(=O)C(CO)NC(C)=O)C3)cc1 (centres undefined) 4.47 µM [inhibitor, partial curve], CC(C)(C)CC(=O)Nc1nc2c(s1)C[C@@H]1[C@](C)(CO)[C@H](O)CC[C@@]1(C)[C@@H]2CC(=O)NCc1ccco1 22.4 µM [inhibitor, single point], COc1cc(F)ccc1-c1ccnc2nc(C(C)C)nn12 3.55 µM [inhibitor, full curve], CCc1cccc(C)c1NS(=O)(=O)c1c(C(=O)N2CCC(C)CC2)c(C)n(C)c1C 35.5 µM [inhibitor, partial curve, poor fit], CCCCC/C=C\CC(O)/C=C/c1cccc(CC(O)CCCCO)n1 (centres undefined) 20 µM [inhibitor, partial curve, poor fit], COc1ccc(CCNC(=O)c2noc(-c3ccc(F)cc3)n2)cc1OC 39.8 µM [inhibitor, single point], CC1CCCN(C(=O)CSc2c3c(nc4cc(Cl)ccc24)CCCC3)C1 (centres undefined) 15.8 µM [inhibitor, partial curve, poor fit], Cc1cccc(-c2nc3ccc(C(=O)NC(C)C)cc3o2)n1 22.4 µM [inhibitor, single point], O=C1COc2ccc(Nc3cccnc3)nc2CN1Cc1ccc(C(F)(F)F)cc1 44.7 µM [inhibitor, partial curve, poor fit], COC(=O)[C@@H]1Cc2c([nH]c3ccccc23)[C@H]2C[C@@H](NCc3cccnc3)C[C@@H](c3ccc(C(F)(F)F)cc3)N21 15.8 µM [inhibitor, partial curve, poor fit], NC(=O)C1CCN(C(=O)c2ccc(NC(=O)c3nsc4ccccc34)cc2)CC1 8.91 µM [inhibitor, partial curve, poor fit], Cc1cc(S(=O)(=O)N2CCCC2c2noc(COc3ccc(F)cc3)n2)ccc1F (centres undefined) 39.8 µM [inhibitor, single point], COCC(=O)N[C@H]1C[C@@H](CO)N(Cc2ccc(C#N)cc2)C1 5.01 µM [inhibitor, single point], CN1C(=O)CO[C@H](c2ccc(NC(=O)c3ccc(-c4ccccc4)cc3)cc2)[C@H]1CO 3.98 µM [inhibitor, single point], Cc1noc(C)c1Cc1ccc(C(=O)NC2CCc3nnc(C)n3CC2)o1 (centres undefined) 2 µM [inhibitor, partial curve, poor fit], COc1ccc(C2(C(=O)N3CCc4ccccc4C3)CCOCC2)cc1 10 µM [inhibitor, single point], CCCNC(=O)N1Cc2ccccc2OC2(CCN(C)CC2)C1 39.8 µM [inhibitor, single point], Cn1c(=O)oc2cc(S(=O)(=O)NCCC(=O)Nc3ccc(F)cc3F)ccc21 39.8 µM [inhibitor, single point], CN1CCC2(C1)CN(CC1CCOCC1)c1ccc(C(=O)Nc3ccccc3)cc12 (centres undefined) 3.55 µM [inhibitor, partial curve, poor fit], Fc1cccc(-c2cnc([C@@H]3COCCN3Cc3ccccc3)[nH]2)c1 5.62 µM [inhibitor, partial curve, poor fit], CCCCCNc1ncnc2c1CN(C1CCCNCC1)C(=O)CN2C (centres undefined) 50.1 µM [inhibitor, single point], O=C(CN1C(=O)C(c2ccc(F)cc2)=NC12CCCCCC2)Nc1ccccc1Cl 39.8 µM [inhibitor, single point], CCN(C(=O)Cn1ccn2nc(-c3ccc(F)cc3)c(CO)c2c1=O)c1ccccc1 17.8 µM [inhibitor, partial curve, poor fit], Cc1cc(C)c(NC(=O)Cn2nc(-c3ccncc3)ccc2=O)c(C)c1 0.158 µM [inhibitor, partial curve, poor fit], COc1ccc(-c2ccc3c(N)c(C(=O)Nc4ccc(C(F)(F)F)cc4)sc3n2)cc1OC 15.8 µM [inhibitor, single point], O=C(NCc1ccc(Cl)nc1)c1c[nH]c2cccnc12 4.47 µM [inhibitor, full curve, poor fit]
